Laboratory results as given in PubChem BioAssay (Tox21).
“And” between values parts separate entries of the source, which are not always exact repeats. Equal values may be shown once. Inconclusive results, whose numbers are uncertain, are shown with a selection of clear calls. For some of these results: Where the call is inconclusive, the potency comes from a doubtful curve fit. The source made the active and inactive calls. Unless noted, calls follow the shape of the dose curve; as a rule, active = well fitted curve in the direction sought with a large enough effect in the repeat runs; inconclusive = weak or mixed curves; inactive = no such curve, though single readings can be large; an effect the other way counts as inactive or inconclusive.

Experiments:
[1] = qHTS assay for small molecule agonists of the p53 signaling pathway (AID 651631; calls by dose curve; also: nearly all actives have a fitted effect of over 15% in size; also: potency is read from the fitted curve at half-maximal effect); conditions: HCT-116 p53RE-bla reporter, beta-lactamase FRET ratio, 16 h; activation: at 73.3 µM (top of the series) unless noted
Outline: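 Fluorescence intensity from cleaved LiveBLAzer B/G substrate (2 h, room temperature) served as the signal. Beforehand, HCT-116 reporter cells bearing p53 response elements were treated 16 h at 37 °C with DMSO-dissolved compounds.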

[2] = qHTS assay for small molecule agonists of the p53 signaling pathway - cell viability (AID 651633; calls by dose curve; also: nearly all actives have a fitted effect of over 30% in size; also: potency is read from the fitted curve at half-maximal effect); conditions: p53RE-bla HCT-116 viability, ATP luminescence, 16 h; series mostly up to 83.3 µM
Outline: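 p53RE-bla cells, seeded at 4,000 per well and rested 5 h at 37 C/5% CO2, received compounds in DMSO for 16 h at 37 C. CellTiter-Glo was then added, and luminescence was read after 30 min at room temperature to gauge cytotoxicity.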

[3] = qHTS assay for small molecule disruptors of the mitochondrial membrane potential - cell viability (AID 720634; calls by dose curve; also: potency is read from the fitted curve at half-maximal effect; nearly all actives have a fitted effect of over 20% in size); conditions: HepG2 viability, ATP luminescence (CellTiter-Glo), 1 h; series mostly up to 83.2 µM
Outline: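 Luminescence from CellTiter-Glo (ATP content) gave viability in HepG2 cells, read in the same wells as the MMP dye assay after 1 hr compound exposure at 37 C.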

[4] = qHTS assay for small molecule disruptors of the mitochondrial membrane potential (AID 720635); conditions: HepG2 mitochondrial membrane potential, Mito-MPS dye ratio; ratio activity, negative = MMP loss: at 83.2 µM (top of the series) unless noted; also: potency is read from the fitted curve at half-maximal effect; as to ratio activity, negative = MMP loss: % is scaled to controls: 0 for no effect and ±100 for the full control effect
Outline: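 HepG2 cells (2,000/well) attached overnight at 37C, then took compound for 1 hr at 37C, 5% CO2. Mito-MPS dye was added for 30 min; fluorescence was read at 490/535 nm (monomers) and 540/590 nm (aggregates).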

[5] = qHTS assay for identifying genotoxic compounds that show differential cytotoxicity against isogenic chicken DT40 cell lines with known DNA damage response pathways - Rev3 mutant cell line (AID 743014); conditions: chicken DT40 Rev3-/- viability, CellTiter-Glo, 40 h; activity, negative = cytotoxicity: at 68.4 µM (top of the series) unless noted; also: nearly all actives have a fitted effect of over 55% in size; also: potency is read from the fitted curve at half-maximal effect; as to activity, negative = cytotoxicity: % is scaled to controls: 0 for no effect and ±100 for the full control effect
[6] = qHTS assay for identifying genotoxic compounds that show differential cytotoxicity against isogenic chicken DT40 cell lines with known DNA damage response pathways - Rad54/Ku70 mutant cell line (AID 743015); conditions: DT40 Rad54/Ku70 mutant viability, CellTiter-Glo, 40 h; activity change, negative = cytotoxicity: at 66.8 µM (top of the series) unless noted; also: potency is read from the fitted curve at half-maximal effect; nearly all actives have a fitted effect of over 60% in size
[7] = biological target: Glucocorticoid receptor (Homo sapiens) (UniProt P04150); assay: qHTS assay to identify small molecule antagonists of the glucocorticoid receptor (GR) signaling pathway (AID 720692; active = well fitted inhibition curve with a large enough effect in the signal ratio in the repeat runs, not every such curve was filed as active; inconclusive = weak or mixed curves, or effect the other way; inactive = no such curve, though single readings can be large or run the other way; the % refers to the signal ratio; also: potency is read from the fitted curve at half-maximal effect); conditions: GR-bla HeLa, beta-lactamase FRET ratio, dexamethasone-stimulated, 18 h; activity change, negative = inhibition: at 58.5 µM (top of the series) unless noted
Outline: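 Read-out: beta-lactamase FRET substrate fluorescence, 2 h at room temperature, in HeLa cells stably carrying a GRE-driven bla reporter. Compounds were co-incubated with 5 nM dexamethasone agonist (final) for 18 h at 37 C.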

[8] = qHTS assay to identify small molecule antagonists of the glucocorticoid receptor (GR) signaling pathway - cell viability counter screen (AID 720693); conditions: GR-bla HeLa viability, CellTiter-Glo luminescence, 18 h, with 5 nM dexamethasone present; viability change, negative = cytotoxic: at 58.5 µM (top of the series) unless noted; also: potency is read from the fitted curve at half-maximal effect; nearly all actives have a fitted effect of over 55% in size
[9] = qHTS assay for identifying genotoxic compounds that show differential cytotoxicity against isogenic chicken DT40 cell lines with known DNA damage response pathways - wild type cell line (AID 743012); conditions: DT40 wild type chicken cells viability, CellTiter-Glo, 40 h; activity change, negative = cytotoxicity: at 68.4 µM (top of the series) unless noted; also: nearly all actives have a fitted effect of over 60% in size; also: potency is read from the fitted curve at half-maximal effect
Outline: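 CellTiter-Glo luminescence readout of viability in wild type DT40 cells after 40 h compound exposure at 37 C/5% CO2; 300 cells/well; reagent incubated 30 min at room temperature before reading.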

[10] = qHTS assay for small molecules that induce genotoxicity in human embryonic kidney cells expressing luciferase-tagged ATAD5 (AID 651632); conditions: HEK293T ATAD5-luciferase induction, 16 h; series mostly up to 83.3 µM; also: potency is read from the fitted curve at half-maximal effect; nearly all actives have a fitted effect of over 15% in size
Outline: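 Luminescence read-out: after 16 hr compound exposure at 37C, ATAD5-luciferase HEK293T cells received Amplite, 30 min RT, then CCD imaging. A rise in signal marks genotoxic stress.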

[11] = biological target: Glucocorticoid receptor (Homo sapiens) (UniProt P04150); assay: qHTS assay to identify small molecule agonists of the glucocorticoid receptor (GR) signaling pathway (AID 720691; active = well fitted activation curve with a large enough effect in the signal ratio in the repeat runs, not every such curve was filed as active; inconclusive = weak or mixed curves, or effect the other way; inactive = no such curve, though single readings can be large or run the other way; the % refers to the signal ratio; also: % is scaled to controls: 0 for no effect and ±100 for the full control effect); conditions: GR-bla HeLa, beta-lactamase reporter ratio, 18 h; activation: at 62.4 µM (top of the series) unless noted
Outline: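 HeLa GR-bla reporter line; cells pre-incubated 4 h, compound in DMSO 18 h at 37 C; LiveBLAzer B/G FRET substrate 2 h RT; fluorescence intensity read-out.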

[12] = qHTS assay for small molecules that induce genotoxicity in human embryonic kidney cells expressing luciferase-tagged ATAD5 - cell viability (AID 651634; calls by dose curve; also: potency is read from the fitted curve at half-maximal effect; nearly all actives have a fitted effect of over 25% in size); conditions: HEK293T ATAD5-luc cells viability, CellTiter-Fluor, 15.5 h; series mostly up to 83.3 µM
Outline: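 HEK293T ATAD5-luc cells, 2,000/well; compound 15.5 hr, 37C/5% CO2; CellTiter-Fluor 30 min, 37C; fluorescence read.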

[13] = qHTS assay to test for compound auto fluorescence at 460 nm (blue) in HEK293 cell free culture (AID 720681); conditions: cell-free medium, autofluorescence 405/460 nm (blue); series mostly up to 91.3 µM; also: % is scaled to controls: 0 for no effect and ±100 for the full control effect
Outline: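 Test compounds were pinned into cell-free culture medium (DMEM with 10% FBS) and fluorescence was read directly at Ex/Em 405/460 nm. Signals were expressed as fluorescence equivalents of triamterene, with DMSO vehicle as control.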
Tags tell the direction and shape of the fitted curve or compound fluorescence and quenching.

Sequence of UniProt P04150 (P04150 whole entry, looked up): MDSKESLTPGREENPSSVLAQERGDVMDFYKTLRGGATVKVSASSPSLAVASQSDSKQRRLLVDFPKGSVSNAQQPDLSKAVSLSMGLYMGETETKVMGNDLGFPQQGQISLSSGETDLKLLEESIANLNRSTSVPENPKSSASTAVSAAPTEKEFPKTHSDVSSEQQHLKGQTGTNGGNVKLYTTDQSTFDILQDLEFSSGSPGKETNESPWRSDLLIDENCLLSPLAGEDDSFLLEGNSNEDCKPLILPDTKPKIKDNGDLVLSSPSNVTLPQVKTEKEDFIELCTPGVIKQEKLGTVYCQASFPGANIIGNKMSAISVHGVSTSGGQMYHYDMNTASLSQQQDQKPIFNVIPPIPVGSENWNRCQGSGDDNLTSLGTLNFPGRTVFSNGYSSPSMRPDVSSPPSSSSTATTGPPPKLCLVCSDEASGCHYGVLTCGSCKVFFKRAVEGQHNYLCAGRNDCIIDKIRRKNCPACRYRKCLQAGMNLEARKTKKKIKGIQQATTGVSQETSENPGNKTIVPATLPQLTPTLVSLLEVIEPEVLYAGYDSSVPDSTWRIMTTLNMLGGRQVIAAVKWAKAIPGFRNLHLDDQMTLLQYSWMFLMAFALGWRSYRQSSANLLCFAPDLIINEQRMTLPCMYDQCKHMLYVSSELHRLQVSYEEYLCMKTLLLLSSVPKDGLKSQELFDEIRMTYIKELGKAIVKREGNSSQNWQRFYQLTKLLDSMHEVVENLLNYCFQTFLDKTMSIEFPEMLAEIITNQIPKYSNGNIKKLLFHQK

Question: For `CCCCCCOC(=O)c1ccccc1C(=O)OCCCCCC`, which Potency [1] is on record?
Answer: inconclusive: 31.3 µM [falling, full curve]

Question: And the Potency [2]?
Answer: inconclusive: 70 µM [cytotoxic, single point]

Question: And the Potency [3]?
Answer: inconclusive: 31.3 µM [cytotoxic, partial curve]

Question: And the Potency [4]?
Answer: active: 27.9 µM

Question: What about the ratio activity, negative = MMP loss [4] of the same compound?
Answer: inconclusive: 2.63%

Question: And the Potency [5]?
Answer: inactive and inconclusive: 61.1 µM [cytotoxic, partial curve, poor fit]

Question: And the Potency [6]?
Answer: inconclusive: 30.6 µM [cytotoxic, full curve]

Question: With `C[C@]12C/C(=C/O)C(=O)C[C@@H]1CC[C@@H]1[C@@H]2CC[C@@]2(C)[C@H]1CC[C@]2(C)O` as the compound, how does the Potency [1] read?
Answer: inconclusive: 33.5 µM [activator] and inconclusive: 43.7 µM [cytotoxic, partial curve]

Question: What about the Potency [2] of the same compound?
Answer: inconclusive: 26.6 µM [cytotoxic, single point] and active: 49 µM

Question: What about the Potency [3] of the same compound?
Answer: inconclusive: 69.2 µM [cytotoxic, partial curve, poor fit]

Question: What about the Potency [4] of the same compound?
Answer: inconclusive: 8.41 µM [activator, full curve] and inconclusive: 12.3 µM [activator, partial curve]

Question: What about the Potency [7] of the same compound?
Answer: inconclusive: 13.4 µM [cytotoxic, single point]

Question: And the activity change, negative = inhibition [7]?
Answer: inconclusive: -80.8% [at 78.9 µM]

Question: What about the Potency [8] of the same compound?
Answer: inconclusive: 10.7 µM [cytotoxic, single point] and active: 49.4 µM

Question: What about the Potency [5] of the same compound?
Answer: inconclusive: 33.5 µM [cytotoxic, single point]

Question: And the Potency [6]?
Answer: active: 13.3 µM and active: 15.5 µM

Question: Which results are given for `Clc1ccc(CCC(Cn2ccnc2)Sc2c(Cl)cccc2Cl)cc1` (stereo not drawn)?
Answer: Potency [1]: inconclusive: 10.1 µM [cytotoxic]; Potency [2]: inconclusive: 14.3 µM [cytotoxic, single point]; Potency [4]: inconclusive: 1.8 µM [rising, full curve]; Potency [5]: inconclusive: 14.3 µM [cytotoxic, single point]; Potency [6]: inconclusive: 12.7 µM [cytotoxic]

Question: Which Potency [1] does the source give for `CCCCCCCCCCCCCCCC[n+]1ccccc1` here?
Answer: active: 26.6 µM and active: 71.7 µM

Question: And the Potency [2]?
Answer: active: 67.6 µM [middle of 4 runs]

Question: What about the Potency [3] of the same compound?
Answer: inconclusive: 29.8 µM [cytotoxic] and inconclusive: 54.5 µM [cytotoxic, single point]

Question: What about the Potency [8] of the same compound?
Answer: active: 30.9 µM [middle of 4 runs]

Question: And the Potency [9]?
Answer: active: 427 nM [middle of 4 runs]

Question: What does the source list for `CCOc1nc(C(Cl)(Cl)Cl)ns1`?
Answer: activation [1]: inconclusive: -2.49%; Potency [2]: inactive; ratio activity, negative = MMP loss [4]: inconclusive: 6.81%; Potency [9]: inconclusive: 27.3 µM [rising, partial curve, poor fit]

Question: What does the source list for `O=C(O)CCCc1ccc(N(CCCl)CCCl)cc1`?
Answer: Potency [1]: active: 23.7 µM and active: 61.4 µM and active: 34.4 µM; Potency [10]: inconclusive: 61.4 µM [activator] and inconclusive: 61.1 µM [activator]; Potency [6]: inconclusive: 33.5 µM [cytotoxic, single point] and inconclusive: 68.9 µM [cytotoxic, single point]

Question: With `O=[N+]([O-])c1ccc2ccc3cccc4ccc1c2c34` as the compound, how does the Potency [1] read?
Answer: inconclusive: 38.5 µM [inhibitor, partial curve]

Question: And the Potency [10]?
Answer: active: 48.5 µM

Question: What about the activation [11] of the same compound?
Answer: inconclusive: -8.42%

Question: What does the source list for `Nc1ccc(N=Nc2ccccc2)cc1`?
Answer: Potency [1]: inconclusive: 0.486 µM [cytotoxic, full curve, poor fit]; Potency [12]: active: 41.6 µM; Potency [3]: inconclusive: 27.3 µM [cytotoxic, partial curve]; Potency [4]: inconclusive: 0.545 µM [activator]; Potency [7]: active: 54.9 µM

Question: For `C[C@H]1CCC[C@H](O)CCCCCc2cc(O)cc(O)c2C(=O)O1`, which Potency [1] is on record?
Answer: inactive

Question: And the Potency [2]?
Answer: inactive

Question: And the Potency [3]?
Answer: active: 26.6 µM and inconclusive: 30.9 µM [cytotoxic, partial curve]

Question: What about the Potency [4] of the same compound?
Answer: active: 9.44 µM and active: 6.91 µM

Question: What about the Potency [7] of the same compound?
Answer: active: 21.3 µM and active: 39.2 µM

Question: Which Potency [1] does the source give for `Cl/C=C\C[N+]12CN3CN(CN(C3)C1)C2` here?
Answer: inconclusive: 68.6 µM [activator]

Question: What about the Potency [10] of the same compound?
Answer: inconclusive: 68.6 µM [activator, partial curve, poor fit]

Question: And the activity change, negative = inhibition [7]?
Answer: inconclusive: 33.2%

Question: And the Potency [5]?
Answer: active: 30.6 µM

Question: Which Potency [1] does the source give for `CC(Br)C(=O)O` (stereo not drawn) here?
Answer: inactive

Question: And the Potency [10]?
Answer: inconclusive: 77 µM [activator, partial curve, poor fit]

Question: What about the Potency [4] of the same compound?
Answer: inactive

Question: And the Potency [13]?
Answer: inactive

Question: And the Potency [7]?
Answer: inconclusive: 44.1 µM [activator, partial curve]

Question: And the Potency [8]?
Answer: inconclusive: 62.3 µM [cytotoxic, single point]

Question: And the Potency [9]?
Answer: inactive

Question: And the Potency [5]?
Answer: inactive
